From publication PMC9911399, “Two distinct binding modes provide the RNA-binding protein RbFox with extraordinary sequence specificity” come the findings set out here.

Numbering of substitutions follows the chain as printed; changes in the protein carry UniProt numbers. This is one part of the list.

To fix the notation:
T1: RBFOX1 RRM (Homo sapiens, UniProt Q9NWB1 109-208)
T1 sequence: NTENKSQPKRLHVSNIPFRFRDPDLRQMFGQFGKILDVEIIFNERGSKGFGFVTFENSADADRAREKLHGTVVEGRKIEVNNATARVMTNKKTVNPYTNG

B1: UUCUAUA (DNA:RNA)
RNA: GGGAGACCGGAAUUCAGAUUGUCCUUCUAUAUUAAAUCCCGUCGUAGCCACCA
DNA 1: CAATCTGAATTCCGGTCTCCC
DNA 2: TGGTGGCTACGACGGGATT
B2: CAUAACA (DNA:RNA)
RNA: B1 RNA with U25C, U26A, C27U, U28A, U30C
DNA 1: CAATCTGAATTCCGGTCTCCC
DNA 2: TGGTGGCTACGACGGGATT
B3: CCGCAGU (DNA:RNA)
RNA: B1 RNA with U25C, U26C, C27G, U28C, U30G, A31U
DNA 1: CAATCTGAATTCCGGTCTCCC
DNA 2: TGGTGGCTACGACGGGATT
B4: AGCUCAU (DNA:RNA)
RNA: B1 RNA with U25A, U26G, A29C, U30A, A31U
DNA 1: CAATCTGAATTCCGGTCTCCC
DNA 2: TGGTGGCTACGACGGGATT
B5: AACGAUA (DNA:RNA)
RNA: B1 RNA with U25A, U26A, U28G
DNA 1: CAATCTGAATTCCGGTCTCCC
DNA 2: TGGTGGCTACGACGGGATT
B6: UUGACGG (DNA:RNA)
RNA: B1 RNA with C27G, U28A, A29C, U30G, A31G
DNA 1: CAATCTGAATTCCGGTCTCCC
DNA 2: TGGTGGCTACGACGGGATT
B7: UAACCCG (DNA:RNA)
RNA: B1 RNA with U26A, C27A, U28C, A29C, U30C, A31G
DNA 1: CAATCTGAATTCCGGTCTCCC
DNA 2: TGGTGGCTACGACGGGATT
B8: UUCCUGU (DNA:RNA)
RNA: B1 RNA with U28C, A29U, U30G, A31U
DNA 1: CAATCTGAATTCCGGTCTCCC
DNA 2: TGGTGGCTACGACGGGATT
B9: GUCUGAG (DNA:RNA)
RNA: B1 RNA with U25G, A29G, U30A, A31G
DNA 1: CAATCTGAATTCCGGTCTCCC
DNA 2: TGGTGGCTACGACGGGATT
B10: GUUUUGG (DNA:RNA)
RNA: B1 RNA with U25G, C27U, A29U, U30G, A31G
DNA 1: CAATCTGAATTCCGGTCTCCC
DNA 2: TGGTGGCTACGACGGGATT
B11: CCCAGUC (DNA:RNA)
RNA: B1 RNA with U25C, U26C, U28A, A29G, A31C
DNA 1: CAATCTGAATTCCGGTCTCCC
DNA 2: TGGTGGCTACGACGGGATT
B12: UUUACUC (DNA:RNA)
RNA: B1 RNA with C27U, U28A, A29C, A31C
DNA 1: CAATCTGAATTCCGGTCTCCC
DNA 2: TGGTGGCTACGACGGGATT
B13: UAGGUUG (DNA:RNA)
RNA: B1 RNA with U26A, C27G, U28G, A29U, A31G
DNA 1: CAATCTGAATTCCGGTCTCCC
DNA 2: TGGTGGCTACGACGGGATT
B14: UAGCCAG (DNA:RNA)
RNA: B1 RNA with U26A, C27G, U28C, A29C, U30A, A31G
DNA 1: CAATCTGAATTCCGGTCTCCC
DNA 2: TGGTGGCTACGACGGGATT
B15: CCGGUAC (DNA:RNA)
RNA: GGGAGACCGGAAUUCAGAUUGUCCCCGGUACUUAAAUCCCGUCGUAGCCACCA
DNA 1: CAATCTGAATTCCGGTCTCCC
DNA 2: TGGTGGCTACGACGGGATT
B16: ACCUGCU (DNA:RNA)
RNA: B1 RNA with U25A, U26C, A29G, U30C, A31U
DNA 1: CAATCTGAATTCCGGTCTCCC
DNA 2: TGGTGGCTACGACGGGATT
B17: UCCGCGU (DNA:RNA)
RNA: B15 RNA with C25U, G27C, U29C, A30G, C31U
DNA 1: CAATCTGAATTCCGGTCTCCC
DNA 2: TGGTGGCTACGACGGGATT
B18: CAAUUGG (DNA:RNA)
RNA: B15 RNA with C26A, G27A, G28U, A30G, C31G
DNA 1: CAATCTGAATTCCGGTCTCCC
DNA 2: TGGTGGCTACGACGGGATT
B19: AUUAGAC (DNA:RNA)
RNA: B15 RNA with C25A, C26U, G27U, G28A, U29G
DNA 1: CAATCTGAATTCCGGTCTCCC
DNA 2: TGGTGGCTACGACGGGATT
B20: CAGUUGA (DNA:RNA)
RNA: B15 RNA with C26A, G28U, A30G, C31A
DNA 1: CAATCTGAATTCCGGTCTCCC
DNA 2: TGGTGGCTACGACGGGATT
B21: CUGAUAA (DNA:RNA)
RNA: B15 RNA with C26U, G28A, C31A
DNA 1: CAATCTGAATTCCGGTCTCCC
DNA 2: TGGTGGCTACGACGGGATT
B22: GUAACUA (DNA:RNA)
RNA: B1 RNA with U25G, C27A, U28A, A29C
DNA 1: CAATCTGAATTCCGGTCTCCC
DNA 2: TGGTGGCTACGACGGGATT
B23: UCGAUGG (DNA:RNA)
RNA: B15 RNA with C25U, G28A, A30G, C31G
DNA 1: CAATCTGAATTCCGGTCTCCC
DNA 2: TGGTGGCTACGACGGGATT
B24: UUUUCAG (DNA:RNA)
RNA: B1 RNA with C27U, A29C, U30A, A31G
DNA 1: CAATCTGAATTCCGGTCTCCC
DNA 2: TGGTGGCTACGACGGGATT
B25: CGAAACA (DNA:RNA)
RNA: B1 RNA with U25C, U26G, C27A, U28A, U30C
DNA 1: CAATCTGAATTCCGGTCTCCC
DNA 2: TGGTGGCTACGACGGGATT
B26: UCGGGAU (DNA:RNA)
RNA: B15 RNA with C25U, U29G, C31U
DNA 1: CAATCTGAATTCCGGTCTCCC
DNA 2: TGGTGGCTACGACGGGATT
B27: UAAAUAU (DNA:RNA)
RNA: B15 RNA with C25U, C26A, G27A, G28A, C31U
DNA 1: CAATCTGAATTCCGGTCTCCC
DNA 2: TGGTGGCTACGACGGGATT
B28: CCUAUUC (DNA:RNA)
RNA: B15 RNA with G27U, G28A, A30U
DNA 1: CAATCTGAATTCCGGTCTCCC
DNA 2: TGGTGGCTACGACGGGATT
B29: CACCUGG (DNA:RNA)
RNA: B15 RNA with C26A, G27C, G28C, A30G, C31G
DNA 1: CAATCTGAATTCCGGTCTCCC
DNA 2: TGGTGGCTACGACGGGATT
B30: CAGCUUU (DNA:RNA)
RNA: B15 RNA with C26A, G28C, A30U, C31U
DNA 1: CAATCTGAATTCCGGTCTCCC
DNA 2: TGGTGGCTACGACGGGATT
B31: CCUCCGA (DNA:RNA)
RNA: B15 RNA with G27U, G28C, U29C, A30G, C31A
DNA 1: CAATCTGAATTCCGGTCTCCC
DNA 2: TGGTGGCTACGACGGGATT

This assay has as its target T1, RBFOX1 RRM. Nature of the assay: EMSA; HiTS-Eq, 1 nM pool, 10 min; buffer printed only for the single-RNA assays: 10 mM Tris pH 7.5, 150 mM NaCl, 3.4 mM EDTA, 0.001% NP-40, 30 C. The note with it: tags: His6 N-terminal (pET28a); label: 5' 32P. Summed up: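 A pool of RNA with 7 randomized nucleotides, 5′-radiolabelled and with DNA-annealed flanks, was equilibrated at 1 nM for 10 min in 50 µL with purified RbFox RRM, wild type or mutant, across increasing protein concentrations. Free RNA was separated by 8% native PAGE, excised, reverse-transcribed, barcoded by PCR and sequenced. Relative association constants were obtained from read-count changes of each RNA species versus the control reaction and normalised to the cognate motif.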
Take B1: the binding signal is 0.00123 KA relative to UGCAUGU. B2: the binding signal is 0.00191 KA relative to UGCAUGU. B3: the binding signal is 0.00716 KA relative to UGCAUGU. In the case of B4, the binding signal is 0.00371 KA relative to UGCAUGU. The same measure for B5: 0.00289 KA relative to UGCAUGU; for B6: 0.0155 KA relative to UGCAUGU; for B7: 0.0031 KA relative to UGCAUGU. Consider B8, for which the binding signal was 0.0109 KA relative to UGCAUGU. Take B9: the binding signal is 0.0256 KA relative to UGCAUGU. As to B10, the binding signal is 0.0186 KA relative to UGCAUGU.

In the case of B11, the binding signal was 0.00823 KA relative to UGCAUGU.

As for B12, the binding signal is 0.00457 KA relative to UGCAUGU. Turning to B13, the binding signal was 0.0284 KA relative to UGCAUGU. Regarding B14, the binding signal is 0.0132 KA relative to UGCAUGU. With B15, the binding signal was 0.0115 KA relative to UGCAUGU. The same measure for B16: 0.00975 KA relative to UGCAUGU; for B17: 0.0079 KA relative to UGCAUGU. Turning to B18, the binding signal was 0.00654 KA relative to UGCAUGU. With B19 the figure was 0.00734 KA relative to UGCAUGU.

B20: the binding signal was 0.0146 KA relative to UGCAUGU. For the molecule B21, the binding signal is 0.00614 KA relative to UGCAUGU. For B22, the binding signal is 0.0032 KA relative to UGCAUGU. Take B23: the binding signal is 0.019 KA relative to UGCAUGU. In the case of B24, the binding signal was 0.0135 KA relative to UGCAUGU.

B25: the binding signal is 0.00327 KA relative to UGCAUGU. For B26, the binding signal is 0.0283 KA relative to UGCAUGU.

As for B27, the binding signal was 0.00578 KA relative to UGCAUGU. B28: the binding signal is 0.00347 KA relative to UGCAUGU. For B29, the binding signal is 0.00866 KA relative to UGCAUGU.

Regarding B30, the binding signal was 0.0065 KA relative to UGCAUGU. As for B31, the binding signal was 0.00601 KA relative to UGCAUGU.
